# Source: the supplement of paper PMC11417369
# This is one part of the list.
# Test system: PfHDP1 homeodomain (GST-tagged)
# Test: gcPBM binding intensity (ln(normalized median fluorescence intensity)); higher = stronger DNA binding
# Summary of the method: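 Plasmodium falciparum DNA-binding domains carrying a GST tag were expressed in E. coli and applied for 1 h, at about 25 μg on average, to an Agilent 4 × 180k array. The array held primer-extended double-stranded 36-bp intergenic genomic probes together with negative controls, and binding took place in 1× PBS with 1% milk, 0.2 mg/ml BSA, 0.5% salmon testes DNA and 0.03% Triton X-100. An Alexa488 anti-GST antibody detected bound protein, and the array was scanned at 488 nm. Binding intensity is taken as the highest Masliner-normalised natural-log median intensity across replicate spots of either probe orientation.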
row,Sequence,gcPBM binding intensity (ln)
1,AAAAGGTGGAAAAATGCATGCAGGCTATTCTATATA [TGCATGCA_site1034],6.36
2,AATTACATATAATACTGTACGCTAATAAGAAAAAAA [XGTACX_site7413],6.61
3,TTCCACCAATATATATGTACTTATAATATATATATA [XGTACX_site8700],8.23
4,AAAAAACACGGACACACACACATATACATACATACA [CACACA_site5470],7.35
5,ATTTATAGAGCTATATGTACATATATATATATTATT [XGTACX_site3704],6.62
6,AATATAAATAATGTTAAACACACATACCGATATATA [CACACA_site8869],6.7
7,GATCTATTGAGTGATACATGCAGGAAAATTAAAAAC [TGCATGCA_site729],7.02
8,TTTTTATTATAAGGTCGTACAATTGTAATTATTGTA [XGTACX_site1413],6.45
9,AAAAAGAAAAAAGAAAGTACAAATATACACATTTTT [XGTACX_site3343],6.2
10,TTTTTTTTTTTATGCTCACACATTAATTTTTATACA [CACACA_site4527],8.86
11,TATGTATGTATGTATGTATGCATGTCTAACACCTAA [TGCATGCA_site360],6.75
12,ACACATGTATTTGGTGCATGTTGTTAAAAAAATATT [TGCATGCA_site795],9.61
13,TCATAGCTAGGATAACGTACAGAAAAGTGAAAAATT [XGTACX_site3322],6.78
14,ATTCTAGTAATATATGTATATTTATATATGTATGTG [XGTACX_negctrl_site419],6.36
15,TTTTTTTTTTGTTGTTGTACTCTTATATTTTTATAT [XGTACX_site6178],6.72
16,ATATATATGTATATAACATGCAACATTTAATAATAA [TGCATGCA_site1018],6.79
17,TTTTTTTTTTTTTTTTAACACACATATATATATTTT [CACACA_site8585],6.42
18,ATAAAAGATTTATACATACACACATATTATATTCAC [CACACA_site3714],6.53
19,TTTAATTTATATAATGATATTAAGTTGGTTATTAGG [CACACA_negctrl_site329],6.1
20,ATATAGTTTCACATGTGTACATAAAAATACACTTGT [XGTACX_site3339],6.59
21,ACAAAAATGAGATGGTGTACGCACAAATAAATAATA [XGTACX_site5221],7.75
22,ACATATATATTTATATGTACATATATTTATATATAT [XGTACX_site7469],6.46
23,AAAAATATTTAAAATACACACATATCTATAATATAT [CACACA_site7032],6.36
24,GTGGTATAAATTTTATGTACTTAATAACTCATTAAT [XGTACX_site5555],6.47
